Hit rate of the full screen: of about 310,000 compounds, about 2,200 (0.71%) showed an effect of 50% or more. The effect is printed as a negative number. The list shows a part of the results.
biological target: human ether-à-go-go-related gene (hERG) potassium channel (human, UniProt Q12809); assay: primary screen, population patch clamp on CHO cells stably expressing hERG
Sequence (Q12809 whole entry, looked up): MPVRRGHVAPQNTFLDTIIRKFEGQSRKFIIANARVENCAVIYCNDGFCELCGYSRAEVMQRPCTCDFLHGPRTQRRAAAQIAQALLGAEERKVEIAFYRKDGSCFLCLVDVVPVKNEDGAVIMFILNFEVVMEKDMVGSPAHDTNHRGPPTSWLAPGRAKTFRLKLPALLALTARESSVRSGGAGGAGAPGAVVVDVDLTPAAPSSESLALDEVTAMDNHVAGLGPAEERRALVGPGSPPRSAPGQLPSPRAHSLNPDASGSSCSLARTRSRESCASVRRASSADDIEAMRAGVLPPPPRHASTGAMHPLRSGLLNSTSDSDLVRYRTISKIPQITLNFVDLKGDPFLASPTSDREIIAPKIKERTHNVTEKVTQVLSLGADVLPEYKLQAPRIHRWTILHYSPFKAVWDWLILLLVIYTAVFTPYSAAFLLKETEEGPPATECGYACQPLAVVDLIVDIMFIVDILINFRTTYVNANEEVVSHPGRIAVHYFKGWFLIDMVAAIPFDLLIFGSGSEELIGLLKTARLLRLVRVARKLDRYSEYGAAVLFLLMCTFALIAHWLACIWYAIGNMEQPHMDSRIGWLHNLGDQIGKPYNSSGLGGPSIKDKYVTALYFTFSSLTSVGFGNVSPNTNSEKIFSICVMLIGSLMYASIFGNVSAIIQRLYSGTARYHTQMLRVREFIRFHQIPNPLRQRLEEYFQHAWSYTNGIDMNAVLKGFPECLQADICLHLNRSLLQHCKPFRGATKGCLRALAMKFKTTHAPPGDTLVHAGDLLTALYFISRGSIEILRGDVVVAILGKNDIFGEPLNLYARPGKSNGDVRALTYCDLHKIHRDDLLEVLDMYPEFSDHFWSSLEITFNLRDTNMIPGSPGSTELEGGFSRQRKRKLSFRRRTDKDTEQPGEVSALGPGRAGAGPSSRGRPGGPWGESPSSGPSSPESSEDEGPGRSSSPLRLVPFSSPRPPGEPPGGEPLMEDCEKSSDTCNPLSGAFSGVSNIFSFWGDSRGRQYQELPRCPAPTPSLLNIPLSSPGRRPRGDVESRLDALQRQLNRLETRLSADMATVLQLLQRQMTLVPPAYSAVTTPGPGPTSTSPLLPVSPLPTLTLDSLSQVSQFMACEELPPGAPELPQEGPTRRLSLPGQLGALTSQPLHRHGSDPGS

Row | SMILES | hERG current change (%, negative = inhibition) at 1uM [%]
1 | Cc1ccc(NS(=O)(=O)c2ccc(C(=O)NCCCN3CCCC3=O)cc2)cc1 | 16.9
2 | COc1cc(C)c(Cl)cc1S(=O)(=O)N(C)C | 4.63
3 | CC[n+]1cccc(-c2nc3ccccc3s2)c1.[I-] | 7.25
4 | COc1cc2ncnc(NCc3ccccc3C)c2cc1OC | 6.56
5 | CCCCNC(=O)CSc1nc(N)c(C(=O)Nc2ccc(OC)cc2)s1 | 11
6 | CC(CNCC1CCCO1)COc1ccccc1.O=C(O)C(=O)O (stereo not shown) | 17.1
7 | O=[N+]([O-])c1cccc(/C=C/c2nc3ccc([N+](=O)[O-])cc3[nH]2)c1 | 7.43
8 | O=C1c2ccccc2C(O)N1Cc1ccco1 (stereo not shown) | 12.5
9 | COc1ccc(/C=C(/NC(=O)c2ccc(Br)cc2)C(=O)N2CCOCC2)cc1 | 7.06
10 | O=C1CCC/C(=N/NC(=O)c2ccc(NS(=O)(=O)c3cccs3)cc2)C1 | 9.72
11 | C=C1CCN([C@@H](C)C(=O)NCc2ccc(OC)cc2)S(=O)(=O)c2ccccc21 | 6.8
12 | Cc1ccc(N2C(=O)C3C(C2=O)C2C=CC3C23CC3)cc1 (stereo not shown) | -7.92
13 | CC(C)(C)C(=O)Nc1ncccc1C(O)c1cccc(C(F)(F)F)c1 (stereo not shown) | 8.26
14 | COc1cccc(OC)c1C(=O)NC(=S)Nc1ccc2c(c1)Cc1ccccc1-2 | 2.06
15 | Cc1noc(C)c1C(=O)N1CCN(S(=O)(=O)c2cccc(Cl)c2Cl)CC1 | 2.62
16 | COc1ccc(C)cc1NC(=O)CSc1nc2scc(C)c2c(=O)[nH]1 | 15.2
17 | CC1(C)CC(C(CC(=O)N2CCCC2)Cc2ccccc2)CCO1 (stereo not shown) | -2.4
18 | CCC(C(=O)Nc1c[nH]c(=O)[nH]c1=O)c1ccccc1 (stereo not shown) | 13.7
19 | CCC(=O)NC(=S)NNC(=O)c1ccc(NC(=O)c2ccccc2)cc1 | -0.478
20 | CS(=O)(=O)c1sc2nc(-c3ccccc3)cc(-c3ccccc3)c2c1N | 25
21 | Cc1cc2c(cc1S(=O)(=O)CCC(=O)NC1CCC(C)CC1)OCC(=O)N2 (stereo not shown) | -6.33
22 | CCCCCn1c(=O)[nH]c2cc(C(=O)NCCN3CCCCC3C)ccc2c1=O (stereo not shown) | 8.52
23 | CCCCn1c(N)c(N(CCOC)C(=O)c2ccc(Cl)c(S(=O)(=O)N3CCCCC3)c2)c(=O)[nH]c1=O | 15.5

Row | SMILES | hERG current change (%, negative = inhibition) at 1uM [%]
24 | O=C(COC(=O)Cc1ccc(Br)cc1)NC1CC1 | -5.85
25 | CCCOc1ccc(-c2nc(C#N)c(NCC3CCCO3)o2)cc1 (stereo not shown) | -7.89
26 | O=C(N/C(=C/C=C/c1ccccc1)C(=O)N1CCOCC1)c1ccccc1Cl | 0.947
27 | COc1cc(C(=O)N/N=C(\C)c2ccccn2)cc(OC)c1OC | 12
28 | CCOC(=O)c1c(NC(=O)CNC2CCCc3ccccc32)sc(C(N)=O)c1C (stereo not shown) | 14.1
29 | O=C(O)Cc1ccc(Oc2ncc(C(F)(F)F)cc2Cl)cc1 | 11.5
30 | COC(=O)c1ccc(C)c(NC(=O)CCNC(=O)c2ccc([N+](=O)[O-])cc2)c1 | -1.25
31 | CCOC(=O)N1CCN(C(=O)COc2ccc([N+](=O)[O-])cc2)CC1 | -7.49
32 | Cc1sccc1/C=N/NC(=O)c1ccco1 | 10.4
33 | CN(Cc1ccc(F)cc1)C(=O)COc1ccc2ccccc2c1 | 8.89
34 | COc1cc(CNCCO)ccc1OC1CCCC1.Cl | 1.21
35 | COC(=O)C(Cc1ccc(O)cc1)NC(=O)C1CCN(S(=O)(=O)c2ccc(C)cc2)CC1 (stereo not shown) | 11.4
36 | Cc1ccc(N)cc1N | 11.8
37 | COc1cc(/C=N\NC(=O)c2ccc(=O)[nH]n2)cc(OC)c1OC | 13.7
38 | O=C(N/N=C/c1ccnc2ccccc12)c1ccccc1O | 0.864
39 | CCCCNS(=O)(=O)c1ccc(NS(=O)(=O)c2c(C)cc(C)cc2C)cc1 | 1.22
40 | FC(F)Oc1ccc(N=C2SCC3CCCCN23)cc1 (stereo not shown) | 6.94
41 | Cn1c2ccccc2c(=O)c2c(O)cccc21 | 11.5
42 | NC(=NCCc1c[nH]c2ccccc12)NS(=O)(=O)c1cc(F)ccc1F | 11.3
43 | COc1ccc(Br)cc1/C=C\C(=O)NCc1cccnc1 | -0.0518
44 | CC(C)c1cc(C(=O)Nc2cc(Br)ccc2O)no1 | 18.5
45 | COc1ccccc1NC(=O)N1c2ccc(F)cc2CCC1C (stereo not shown) | -11.5
46 | CCOc1ccc(S(=O)(=O)/N=C(/Nc2ccc(OC)cc2)c2ccccc2)cc1 | 15.1

Row | SMILES | hERG current change (%, negative = inhibition) at 1uM [%]
47 | O=C(NCc1ccncc1)C(=O)N/N=C/c1ccc(OCc2ccccc2)cc1 | 11.6
48 | CN(C)S(=O)(=O)c1cccc(NC(=O)COC(=O)CCC(=O)c2ccc(F)cc2)c1 | 1.8
49 | CC(C)CCC(O)(c1ccccc1)C(CN1CCOCC1)c1ccccc1.Cl (stereo not shown) | 11.7
50 | COc1ccc(NC(=O)CCNC(=O)c2ccco2)c(OC)c1 | 12.3
51 | CC(=O)N1Cc2ccccc2CC1C(=O)N1CCN(c2ccccc2)CC1 (stereo not shown) | 10.1
52 | Cc1cc(C(=O)N/N=C/c2cccc(OC(=O)c3ccco3)c2)n[nH]1 | 15.4
53 | CC(=O)N1CCN(CCN=CC2=C(O)CC(c3cccs3)CC2=O)CC1 (stereo not shown) | 10.4
54 | Cc1oc(-c2ccc(Cl)cc2)nc1CN1CCC(C(=O)NCCCN2CCOCC2)CC1 | -6.29
55 | CSC(SC)=C(C(C)=O)C(=O)c1ccc(C)cc1 | 1.48
56 | CC(C)c1ccc(C(O)c2nc3ccccc3n2C)cc1 (stereo not shown) | 6.52
57 | COc1ccccc1NC(=O)C[n+]1ccccc1C.[Cl-] | 17.1
58 | CCCCC(CC)CNC(=O)C1CCCN(S(=O)(=O)c2cnc[nH]2)C1 (stereo not shown) | 5.98
59 | CC(=O)C(C(C)=O)C1(O)C(=O)c2ccccc2C1=O | 10.9
60 | Nc1c(Cl)cc(C(=O)c2c3ccccc3[n+]([O-])n2CCC[NH3+])cc1Cl.[Cl-] | -0.16
61 | Cc1cc(-c2ccccc2)cc(-c2ccccc2)[n+]1CCc1ccccc1.[O-][Cl+3]([O-])([O-])[O-] | -78.4
62 | CCN(CC(=O)NCc1cccs1)C(=O)c1ccc(S(=O)(=O)Nc2ccccc2Cl)cc1 | 7.54
63 | CC(C)CN(c1ccccc1)S(=O)(=O)c1nnc(NC(=O)C(C)C)s1 | 12.4
64 | CCOC(CNC(=O)c1cc2c(=O)n(CC)c3ccccc3c2s1)OCC | 11.6
65 | OCCNc1nc2ccccc2nc1NCCO | 19.9
66 | Cc1ccc(CNC(=O)C(=O)NCCCn2ccnc2)cc1 | 13.8
67 | O=C(CSc1nnc(-c2cccnc2)n1Cc1ccco1)NCc1ccc2c(c1)OCO2 | -20.4
68 | COc1ccc(CNC(=S)Nc2cccc(OC)c2)cc1 | 11
69 | O=C(CSc1nc2ncccc2[nH]1)NCCc1ccccc1 | 15.4

Row | SMILES | hERG current change (%, negative = inhibition) at 1uM [%]
70 | Cc1ccccc1C(=O)NCCOc1ccccc1Cl | 12.9
71 | CCNC(=O)CN(c1ccc(Cl)cc1)S(=O)(=O)c1ccccc1 | 4
72 | Cn1ccc(NC(=O)Nc2ccc(Cl)cc2Cl)n1 | 8.81
73 | CC(=O)c1ccc(N2CCC(c3cc(-c4ccc(Cl)cc4)n[nH]3)CC2)c([N+](=O)[O-])c1 | -8.2
74 | Cc1nn(-c2cc(N3CCOCC3)ccc2N)c(=O)c2ccccc12 | 4
75 | CCc1nc(NC2CCCCC2)c(C#N)c2c1COC(C)(C)C2 | 3.54
76 | O=C1c2cccnc2Oc2ccc(Cl)cc2N1Cc1ccc(F)cc1 | 10.5
77 | CC(=O)Nc1ccc(S(=O)(=O)NC(=O)C23CC4CC(CC(C4)C2)C3)cc1 | 9.6
78 | CCCCC(=O)Nc1sc2c(c1C(N)=O)CCC2 | 11.4
79 | CC1CN(C(=O)CS(=O)(=O)Cc2ccccc2)CC(C)O1 (stereo not shown) | 11
80 | COc1cc2c(cc1OC)C(C)N(C(=O)Cn1ncc3c1-c1ccccc1OC3)CC2 (stereo not shown) | 1.99
81 | Cc1ccc(SCCC(=O)N2CCOCC2)cc1 | 1.22
82 | C/C(CC(=O)Nc1ccc(Cl)cc1Cl)=N\NC(=O)c1ccco1 | 6.15
83 | CCOc1ccc(NC(=S)Nc2cc(OC)c(Cl)cc2OC)cc1 | 9.91
84 | Cc1c(C(=O)O)c(C(=O)O)c2n1CCS2 | 12
85 | Cc1nc(N2CCC(C(N)=O)CC2)c2c(-c3cccs3)csc2n1 | 12.3
86 | O=C1CN(C(=O)c2ccc(F)c(S(=O)(=O)N3CCOCC3)c2)c2ccccc2N1 | 26.5
87 | CCC(=O)Nc1ccccc1N1CCN(S(C)(=O)=O)CC1 | 6.08
88 | Cc1cc(OCC(=O)NCc2ccncc2)c2c3c(c(=O)oc2c1)CCCC3 | -29.5
89 | CC1CN(c2ccc(Oc3ccccc3)cc2)c2nc3c(c(=O)n(CC(N)=O)c(=O)n3C)n2C1 (stereo not shown) | 6.7
90 | COC(=O)CNC(c1ccccc1)c1cc(Cl)ccc1NC(=O)c1cccc(Cl)c1 (stereo not shown) | 8.6
91 | COCCNC(=S)N1CCN(C(c2ccccc2)c2ccccc2)CC1 | 9.94
